Data from PubChem BioAssay AID1347073 (National Center for Advancing Translational Sciences (NCATS), 2019).
About 200 (0.44%) of roughly 45,000 compounds were called active. About 7% were inconclusive and are not listed. Calls follow the shape of the dose curve; as a rule, active = well fitted activation curve with a large enough effect; inconclusive = small, poorly fitted or top-dose-only effect; inactive = no such curve, though single readings can be large or run the other way. The list shows a part of the results.

Test: qHTS of TDP-43 Inhibitors: NCGC Sytravon Library Screen; also: 0% is about no effect; nearly all actives have a fitted effect of over 55% in size
Conditions: yeast TDP-43 toxicity rescue, BacTiter-Glo growth, 24 h; series mostly up to 46.1 µM; growth rescue (activation): at the top concentration
In short: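 TDP-43-expressing yeast, pregrown in raffinose, seeded at OD600 0.02 in galactose medium with compound for 24 hr at 30 deg C. Growth read by BacTiter-Glo luminescence, so rescue of toxicity appears as activation.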

Compound	growth rescue (activation)
Nc1nc2c(s1)CCCCCCCCCC2	inactive: -0.955%
CC(C)(C)Nc1c2ccccc2nc2ccccc12	inactive: -1.54%
O=C(O)C1Cc2ccccc2CN1S(=O)(=O)c1ccccc1 (configuration not stated)	inactive: -4.69%
CCN(Cc1ccncc1)C(=O)CCc1nnc(CCC2CCCCC2)o1	inactive: 15.9%
Cc1cc(NC(=O)C2CC(=O)N(c3ccc(F)cc3)C2)no1 (configuration not stated)	inactive: 1.5%
CCc1cccc(C)c1NC(=O)Cn1cnc2c1c(=O)n(C)c(=O)n2C	inactive: -3.05%
Cc1ccc(Nc2nnc(SCC(O)=C(C#N)c3nc4ccccc4[nH]3)s2)c(C)c1	inactive: 17.7%
CCOC(=O)C1CCN(C(=O)CSc2nccc(C)n2)CC1	inactive: 8.31%
COc1ccc(N(CC(=O)NCCc2ccccc2)C(=O)CCC(=O)Nc2ccccn2)cc1	inactive: 7.48%
COc1cc(C(c2c(O)cc(C)[nH]c2=O)c2c(O)cc(C)[nH]c2=O)ccc1O	inactive: -6.38%
Cc1ccc(N(CC2CO2)S(=O)(=O)c2ccc(C)cc2)cc1 (configuration not stated)	inactive: 8.67%
CCNC(=O)C1(C)CCN(C(=O)c2cccc3ccccc23)C1 (configuration not stated)	inactive: 5.46%
Cc1ccc(C2OCC3(CO2)COC(c2ccc(C)cc2)OC3)cc1 (configuration not stated)	inactive: -2.01%
CC(C)N1CCN(C(=O)c2cccc(Cl)c2)CC1	inactive: 5.75%
CC1Oc2ccc(C#N)cc2N(Cc2cccc(F)c2)C1=O (configuration not stated)	inactive: 28.3%
O=C(O)c1cc2ncc(-c3[nH]ncc3[N+](=O)[O-])cn2n1	inactive: -13.7%
CCOc1cc(/C=C(/NC(C)=O)C(=O)O)cc(Cl)c1OCc1cccc(Br)c1	inactive: -0.004%
CCC(C)(C)NC(=O)c1cc(OC)c(OC)cc1[N+](=O)[O-]	inactive: 5.3%
CN(C)c1cccc(NC(=O)NC2(C)CCS(=O)(=O)C2)c1 (configuration not stated)	inactive: -1.74%
Cc1cccc(OCC(=O)NCCNC(=O)c2cnccn2)c1	inactive: -1.38%
CN(C)S(=O)(=O)c1cccc(C(=O)Nc2cc(S(=O)(=O)N3CCOCC3)ccc2O)c1	inactive: 10.6%
O=C(C1CCCN1S(=O)(=O)c1cccc2nsnc12)N1CCCCC1 (configuration not stated)	inactive: 12%

Compound	growth rescue (activation)
Cc1ccc(CNC(=O)[C@@H](NC(=O)Cc2ccccc2)C(C)C)cc1	inactive: -23.6%
CC(C)c1ccc(CC(=O)N2CCC2(C)C(=O)NCc2cccc3ccccc23)cc1 (configuration not stated)	inactive: 19.1%
O=C(CSc1nncs1)Nc1cccc2ccccc12	inactive: 27.3%
Cc1ccc(S(=O)(=O)N2CCCCC2C(=O)O)cc1 (configuration not stated)	inactive: -8.74%
Cc1ccc(-c2noc(CN(C(=O)c3ccc4c(c3)OCO4)C(C)C)n2)cc1	inactive: -5.42%
Cc1cccc(N(C(=O)Cn2nnc(-c3ccc(C)o3)n2)C(C(=O)NC2CCCC2)c2ccncc2)c1 (configuration not stated)	inactive: -5.73%
COc1ccc(CNC(=O)c2cccc(NC(=O)c3ccccc3)c2)cc1	inactive: 2.17%
COc1ccc(C)cc1NC(=O)c1ccc2c(=O)n3c(nc2c1)CCCCC3	inactive: 23.7%
Cc1nn(-c2ccc(C(=O)O)cc2)c2c1C(=O)CC(C)(C)C2	inactive: 22.9%
CC(=O)Nc1nc(-c2ccc3c(c2)CC(C)N3C(=O)C2CC2)c(C)s1 (configuration not stated)	inactive: 23.9%
CS(=O)(=O)C1=C(O)C(=O)N(c2ccccc2)C1c1ccccc1 (configuration not stated)	inactive: -11.3%
CS(=O)(=O)Nc1nc2n(n1)C(c1ccccc1)CC(c1ccccc1)N2 (configuration not stated)	inactive: 11.2%
CC(=O)Nc1ccc(NC(=O)COc2ccc(S(=O)(=O)NC(C)c3ccccc3)cc2)cc1 (configuration not stated)	inactive: 6.04%
O=c1[nH]c2cc3c(cc2cc1CN(Cc1cccnc1)C(=S)NCc1ccco1)OCCO3	inactive: 9.19%
NC(=O)c1cccc(-c2cccc3nccn23)c1	inactive: -5.92%
COc1cc(/C=N/NC(=O)c2ccc(=O)[nH]n2)ccc1O	inactive: 2.91%
O=C(CN(CCO)c1ccccc1)Nc1ccc(Cl)c(S(=O)(=O)N2CCOCC2)c1	inactive: 3.44%
Cc1ccc(NC(=O)CCC(=O)OC(C)C(=O)c2ccccc2)cc1 (configuration not stated)	inactive: 4.67%
COC(=O)c1c(C)[nH]c(C=Nc2ccc(OC)cc2)c1C	inactive: 12.6%
Cc1c(Br)c([N+](=O)[O-])nn1CC(=O)N(C)Cc1ccccc1	inactive: 19.9%
O=S(=O)(Nc1ncccn1)c1ccc(NC(=S)NCCc2ccc(Cl)cc2)cc1	inactive: -1.23%
O=C1c2ccccc2C(=O)N1CC(O)COc1ccc(Br)cc1 (configuration not stated)	inactive: 10.6%

Compound	growth rescue (activation)
Cc1cccc(OCc2nnc(SCC(=O)N3CCCCC3)o2)c1	inactive: 27.8%
Cc1ccc(C(=O)CS(C)(=O)=O)cc1	inactive: 27.9%
CCOC(=O)C1(Cc2cccc(Cl)c2)CCCN(C(=O)c2cnn(CC)c2)C1 (configuration not stated)	inactive: -4.65%
Cc1nc2ccccn2c1/C(O)=C1\C(=O)C(=O)N(CCN(C)C)C1c1cccnc1 (configuration not stated)	inactive: -4.57%
Cn1c(SCC(=O)Nc2ccc(N3CCOCC3)cc2)nnc1-c1ccco1	inactive: -7.01%
Cc1ccc(S(=O)(=O)Nc2cc(=O)[nH]c(SCc3ccccc3Cl)n2)cc1	inactive: -7.5%
CC(NS(=O)(=O)c1ccc(Br)cc1)C(=O)NCC1CCCO1 (configuration not stated)	inactive: -0.852%
CCn1c(/C=C/c2ccccc2Cl)nc2ccccc2c1=O	inactive: 14%
O=C(CCCN1C(=O)/C(=C/c2cccs2)SC1=S)Nc1ccccc1O	inactive: 4.06%
COc1cc(/C=N/NC(=O)/C(=C\c2ccc3c(c2)OCO3)NC(=O)c2ccccc2)ccc1O	inactive: 7.71%
COCCN(C(=O)CCC(=O)Nc1cc(C)on1)C(C(=O)NC1CCCC1)c1ccccc1F (configuration not stated)	inactive: -23.1%
CN1CCCN(S(=O)(=O)c2cccc(Cl)c2Cl)CC1	inactive: 6.83%
COc1ccc(CN2CCN(C3CCSCC3)CC2CCO)c(C)c1C (configuration not stated)	inactive: 1.57%
CCCCOc1ccc(C(=O)Nc2ccc3oc(-c4cccnc4)nc3c2)cc1	inactive: 7.66%
COc1ccccc1S(=O)(=O)Nc1cc(C)nn1-c1ccc(C)cc1	inactive: 25.6%
COc1ccc(OC)c(N(CC(=O)Nc2ccc3c(c2)OCCO3)S(C)(=O)=O)c1	inactive: 19.7%
NS(=O)(=O)c1ccc(NC(=O)c2ccc(-c3ccccc3)cc2)cc1	inactive: -10.3%
CC(=O)N1c2ccccc2C(=O)OC1c1cccnc1 (configuration not stated)	inactive: -13.2%
CCCNC(=S)N1CCN(C)CC1	inactive: -12.3%
CC1CCC2(CC1)NC(=O)N(CC(=O)NCc1cccs1)C2=O (configuration not stated)	inactive: -18.8%
Cc1c([C@@H]2C[C@H]3CN(Cc4cccc(Cl)c4)C(=O)[C@]34CCCN24)cnn1C	inactive: 11.9%
Cc1nn(CC(=O)NC2CC2)c(C)c1S(=O)(=O)NC(C)(C)C	inactive: 17.9%

Compound	growth rescue (activation)
COc1ccc2c(c1OC)C(=O)N(c1ccc(F)cc1)C2	inactive: -5.24%
CCOc1cc(/C=C/c2cccc[n+]2C)ccc1OCC(=O)Nc1ccc(C)cc1	inactive: 3.09%
COc1cc(CNC(=O)C2CCCN2S(=O)(=O)c2ccccc2)cc(OC)c1OC (configuration not stated)	inactive: -11.4%
CCOC(=O)C1CCN(S(=O)(=O)c2ccc(Cl)s2)CC1	inactive: 5.44%
COc1ccc(Cl)cc1NC(=O)C/C(C)=N/NC(=O)COc1ccc(C)cc1	inactive: 7.25%
COc1ccc(CN(C)C(=O)Cn2ccsc2=N)cc1OC	inactive: -11.9%
O=C(NC1CCN(S(=O)(=O)c2ccc(Cl)c(F)c2)CC1)c1cccnc1	inactive: 15.6%
COC(=O)c1ccc(CN2CCN(CCc3ccccc3)C(CCO)C2)cc1 (configuration not stated)	inactive: -2.42%
O=S(=O)(c1ccc2c(c1)OCCO2)N1CCc2ccccc21	inactive: 8.23%
O=C(Nc1ccccc1C(F)(F)F)c1ccc(CN2CCC(Cc3ccccc3)CC2)cc1	inactive: 1.82%
CCC1(c2ccccc2)NC(=O)N(CC(=O)NCc2ccc(F)cc2)C1=O (configuration not stated)	inactive: -4.41%
O=C1NC(=O)N(c2ccccc2)C1=O	inactive: 4.26%
O=C(CCN1C(=O)S/C(=C\c2cccs2)C1=O)NC1=NCCS1	inactive: 7.47%
O=C(O)CC(C(=O)NCc1ccccc1)C1CCCO1 (configuration not stated)	inactive: 16.7%
Cc1cc([N+](=O)[O-])nn1CCCC(=O)Nc1cccc(Cl)c1Cl	inactive: 29.6%
C[C@@H](N)C(=O)NC[C@H]1CC[C@H](C(=O)N[C@@H](Cc2ccccc2)C(=O)O)CC1	inactive: -21.7%
COC(=O)c1cc(NS(=O)(=O)c2ccc(N3CCOCC3)c(N)c2)cc(C(=O)OC)c1	inactive: -9.83%
CCOc1cc(C)c(Cl)cc1S(=O)(=O)NC1CC(C)(C)NC(C)(C)C1	inactive: 5.96%
C=CCn1c(SCC(=O)Nc2cccnc2Cl)nnc1-c1ccccc1F	inactive: -5.57%
CN(CC(=O)Nc1c(Cl)cccc1Cl)C(=O)Cc1ccsc1	inactive: -3.4%
C=CCNC(=S)NNC(=O)c1cc(O)ccc1O	inactive: -9.52%
N#CC(Cc1ccc(OC(F)F)cc1)c1nc2ccccc2[nH]1 (configuration not stated)	inactive: -12.2%

Compound	growth rescue (activation)
CCN(c1ccccc1)S(=O)(=O)c1ccc(Cl)c(NC(=O)CN(C)C2CCN(C)CC2)c1	inactive: 7.77%
CCOC(=O)CCC(=O)Nc1ccc([N+](=O)[O-])cc1C	inactive: -7.89%
O=C(C1CCCO1)N1CCN(C(=S)Nc2ccc(F)c(Cl)c2)CC1 (configuration not stated)	inactive: -3.31%
O=C(Nc1cccc(OCC(=O)N2CCOCC2)c1)c1cccc([N+](=O)[O-])c1	inactive: 11.3%
COC(=O)c1sc(NC(=O)/C=C/c2ccc(C)cc2)nc1C	inactive: 12.5%
COc1ccc(S(=O)(=O)N2C(=O)/C(=C3\SC(N)=NC3=O)c3ccccc32)cc1	inactive: 21.8%
CCOc1cc(N2CCOCC2)c(OCC)cc1NC(=O)COC(=O)c1c(CC)noc1C	inactive: 5.69%
O=C1CCCN1S(=O)(=O)c1ccccc1	inactive: -10.8%
O=C(NC(Cc1c[nH]c2ccccc12)C(=O)N1CCOCC1)c1cccs1 (configuration not stated)	inactive: -0.206%
CCOc1cc(N2CCOCC2)c(OCC)cc1NC1=NCCCCC1	inactive: 26.5%
COc1ccc(S(=O)(=O)N2CCN(C)CC2)cc1NC(=O)c1ccccc1	inactive: 4.61%
Cc1cc(C)c(C)c(S(=O)(=O)N2CCN(CC(=O)Nc3ccc([N+](=O)[O-])cc3)CC2)c1C	inactive: 19.9%
COC(=O)Cc1c(C)c2ccc(OCC(=O)c3ccc(OC)c(OC)c3)cc2oc1=O	inactive: -6.79%
COC(=O)c1ccc(/C=C/C(=O)c2cccc(OC)c2)cc1	inactive: 22.4%
CCOc1cc(NC(=S)NCc2ccco2)c(OCC)cc1NC(=O)CC(C)C	inactive: 7.63%
O=C(CCSc1nc(-c2ccco2)cc(C(F)(F)F)n1)N1CCCc2ccccc21	inactive: 7.8%
Cc1cccc(NC(=O)C2C3C=CC(O3)C2C(=O)O)c1C (configuration not stated)	inactive: -2.13%
C(=N\N1CCOCC1)/c1cn(-c2ccccc2)nc1-c1ccccc1	inactive: -21%
COc1ccc(NC(=O)c2c3c(nc4ccccc24)CCN(Cc2ccccc2)C3)c(OC)c1	inactive: 7.17%
